Consider 25 molecules from PubChem BioAssay AID360 (National Center for Advancing Translational Sciences (NCATS), 2006).

Out of some 48,000 compounds screened, about 550 (1.1%) were called active. Inconclusive results (about 4%) are left out. Rule as the data show it: active = potency below about 15 µM; inconclusive = mostly about 16 µM to 33 µM; inactive = weaker than that. Some of the results follow. Where only a bound is given, the exact number is not on record here.
Potency is read from the fitted curve at half-maximal effect.

Sequence of UniProt P04062 (P04062 whole entry, looked up): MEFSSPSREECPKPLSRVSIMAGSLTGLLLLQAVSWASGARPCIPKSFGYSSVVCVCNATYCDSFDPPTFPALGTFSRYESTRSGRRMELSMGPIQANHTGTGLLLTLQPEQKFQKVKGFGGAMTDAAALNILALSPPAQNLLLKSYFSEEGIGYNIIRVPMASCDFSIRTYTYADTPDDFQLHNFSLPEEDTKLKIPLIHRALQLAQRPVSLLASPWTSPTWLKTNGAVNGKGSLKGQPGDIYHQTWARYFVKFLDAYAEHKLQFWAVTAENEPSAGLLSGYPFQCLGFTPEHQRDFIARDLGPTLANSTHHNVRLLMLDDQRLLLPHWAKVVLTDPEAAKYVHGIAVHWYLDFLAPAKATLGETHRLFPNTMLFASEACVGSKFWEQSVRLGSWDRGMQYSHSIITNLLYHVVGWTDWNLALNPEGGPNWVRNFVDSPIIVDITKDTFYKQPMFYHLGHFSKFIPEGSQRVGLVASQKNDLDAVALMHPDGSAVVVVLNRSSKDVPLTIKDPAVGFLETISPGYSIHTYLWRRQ

The experiment has as its target Lysosomal acid glucosylceramidase (Homo sapiens) (UniProt P04062). Kind of experiment: Glucocerebrosidase.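 Also: the screen sought inhibitors.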 The settings on record: purified enzyme, resorufin glucoside fluorescence (screen aimed at inhibitors), 20 min. In short, it runs like this:
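Compounds titrated against 0.2 nM normal enzyme, 30 uM resorufin beta-D-glucopyranoside substrate, citrate/phosphate buffer with taurocholate and tween-20, pH 5.9. Reaction ran 20 min at room temperature; fluorescence (Ex 548/Em 600) gave AC50.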
On to `CCN(CC)C(=O)CSc1nnc(-c2cccnc2)n1CCc1ccccc1`, for which the Potency is inactive: > 76.9 µM.

Take `CSc1nc2nc3c(c(=O)n2[nH]1)CN(Cc1ccccc1)CC3`: the Potency is inactive: > 76.9 µM. The value for `Cc1ccc(-c2nnc(SCC(=O)Nc3ccc(S(=O)(=O)N4CCCCCC4)cc3)o2)cc1` was inactive: > 76.9 µM. With `Cn1cccc1C(=O)Nc1nc(-c2ccccn2)cs1` the entry was “inactive”; with `Cn1c(=N)c(S(=O)(=O)c2ccccc2)cc2c(=O)n3ccccc3nc21`, inactive: > 76.9 µM. With `CC1CC(c2ccccc2)n2nc(NC(=O)c3ccco3)nc2N1` (stereo not given) the figure was inactive: > 76.9 µM. As to `Nc1ccccc1NC(=O)c1ccccc1`, the Potency was inactive: > 76.9 µM. The value for `CCOC(=O)N1CCN(S(=O)(=O)c2ccc(OCC)c(C)c2)CC1` was inactive: > 76.9 µM.

In the case of `O=C(Cn1c(C(=O)N2CCc3ccccc3C2)cc2sccc21)c1ccccc1`, the Potency was inactive: > 76.9 µM.

On to `O=C1Nc2ccccc2C12OCCO2`, for which the Potency is inactive: > 76.9 µM. As to `COc1ccccc1N1CCN(C(=O)CSc2ccc3c(C)cc(C)nc3n2)CC1`, the Potency is inactive: > 76.9 µM. With `Cc1cccc(NC(=O)CSc2nnc(CSc3nc(C)cc(C)n3)o2)c1`, the Potency is inactive: > 76.9 µM.

With `Cc1ccc(-c2cc(C(F)F)nc(NCc3cccnc3)n2)cc1`, the Potency was inactive: > 76.9 µM. With `CCOC(=O)N1CCC(NC(=O)CS(=O)Cc2nc(-c3ccc(OC)c(OC)c3)oc2C)CC1` (stereo not given) the figure was inactive: > 76.9 µM; with `Cc1ccc(-c2nnn(CC(=O)N(CC(=O)NCc3ccccc3)c3cccc(C)c3C)n2)o1`, inactive: > 76.9 µM. The value for `Cc1cc2c(cc1C)/C(=C\C(N)=O)NC(C)(C)C2` was inactive: > 76.9 µM. In the case of `CCCOCC(O)COc1ccccc1C(=O)N1CCOCC1` (stereo not given), the Potency is inactive: > 76.9 µM. For the molecule `COC(=O)c1[nH]c2cccc(C)c2c1NC(=O)CN1CCN(C(=O)c2ccco2)CC1`, the Potency was inactive: > 76.9 µM. With `O=S(=O)(c1ccccc1)c1ccccc1/C=N\O` the figure was inactive: > 76.9 µM. Consider `COc1ccc(C(=O)N2CCN(C(=O)c3cc(OC)c(OC)c(OC)c3)CC2)cc1`, for which the Potency is inactive: > 76.9 µM. Consider `CCN(CC)C(=O)CN1CCN(c2ccccc2F)CC1`, for which the Potency was inactive: > 76.9 µM. Turning to `CCN1CCN(CCCNC(=O)C(NC(=O)C2CCC(C)CC2)C(C)C)CC1` (stereo not given), the Potency was inactive: > 76.9 µM. On to `COc1ccc(Br)cc1S(=O)(=O)N1CC(C)OC(C)C1` (stereo not given), for which the Potency was inactive: > 76.9 µM.

With `CCCC(=O)OCC(=O)Nc1cc(C(C)(C)C)nn1-c1ccccc1`, the Potency was inactive: > 76.9 µM.

Take `NCCCSC1=NCCCN1`: the Potency was inactive: > 76.9 µM.
